Source: paper PMC12136788
The other results are listed elsewhere or left out.

T1: UNK ZnF1-3 (human, UniProt Q9C0B0 31-174)
T1 sequence: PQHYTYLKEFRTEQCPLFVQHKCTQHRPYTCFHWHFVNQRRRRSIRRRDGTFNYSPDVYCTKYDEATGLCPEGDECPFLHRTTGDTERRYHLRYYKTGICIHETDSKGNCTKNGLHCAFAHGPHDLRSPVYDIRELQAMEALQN

B1: chr3:9412954:9412955:+_ENSG00000134077_ENST00000452837|hu_mus|hu_hu_hu_mus_False|38_48 (ssRNA)
RNA: GGGAGUUCUACAGUCCGACGAUCGGUUGAUAUCUCUUCUUUGAUGGCUGGAUUUUCAUAAUAGUCCAAGAUAUGUGAAUCUGAAGUAUGGCUAGUGAACUCUUUUUUACCAUCUUUCUCAUCUGCUUUGUCUCCUUGUCCACACAACAGAGGAUUGAGCAUCA
B2: chr1:58468927:58468928:-_ENSMUSG00000026034_ENSMUST00000148330|mus_mus|mus_mus_mus_hu_False|68_98 (ssRNA)
RNA: GGGAGUUCUACAGUCCGACGAUCAAUUACUGAAAAAUGAAAGAUGUACCUUAGCUAUGUACUUAAUUUAAUAAAGCACCCAAACAAAAUAAACAUGGCAAUAUAAAAAUGUUAAGAAUUUACAAAGCUGUACAAAAUAACUUACAACAGAGGAUUGAGCAUCA
B3: 21596471_21596591_2560_3pUTR_ENSG00000124766_ENST00000244745|human|control|control (ssRNA)
RNA: GGGAGUUCUACAGUCCGACGAUCGGGGGUGCAGACAAGUCCGGAAGCUCGUUGGAAGGGGGAGGGGGUCUCUUCAAGCAAAGGGGAGCAAACUCGAAGUCGCUUUUUUUUUUUUGCCAUCAACAACAACAUCAAUAACAACAACAACAGAGGAUUGAGCAUCA
B4: 153593795_153594452_1386_CDS_ENSG00000196924_ENST00000420627|human|control|control (ssRNA)
RNA: GGGAGUUCUACAGUCCGACGAUCCCGCACACCCUUGGGCUGGAGGCCCCGGCCAACCGCCCGGCAGGCACUCGGGUUACAGGCUUGGCCAACAGUGACAGUGUAGGGGCUGCGAGGGAUGGGCACGCCGGCAAACGUGACGUGCAACAGAGGAUUGAGCAUCA
B5: chr1:120503909:120503910:+_ENSMUSG00000064302_ENSMUST00000049404|mus_hu|FALSE|FALSE (ssRNA)
RNA: GGGAGUUCUACAGUCCGACGAUCAUAUAUCACCUUUCGUGGUGUCAGCUGUGAAAGGGGCCCCACACAGACCAUACGCACAAGAAAAUAGGCUAAGGAGGAAGAACACAAAGUAACACCCCACCCCACCCCCAAAUAUGUUAUCAACAGAGGAUUGAGCAUCA
B6: 123607306_123607426_2708_ncRNA_ENSMUSG00000025245_ENSMUST00000165754|mouse|control|control (ssRNA)
RNA: GGGAGUUCUACAGUCCGACGAUCGGUUUGAGUUUAAAAACAAAGCACAACAGUGGAAAAAAGGAGAAUCAGUGCCACACGAGACAGGUACGAGACAGGGGCACAGUGAUUACGCAGUACAUGCUGUAGAAGACAGGCAUCACACAACAGAGGAUUGAGCAUCA
B7: chr3:7442581:7442582:+_ENSMUSG00000027499_ENSMUST00000028999|mus_mus|FALSE|FALSE (ssRNA)
RNA: GGGAGUUCUACAGUCCGACGAUCUGUACUGUACGAUACAAAACGGCGUAAGUAACAGCACUCACACACAGGGACAUAAUGCUAACUGUGCUCUCUGGAUGGUUCUUUUUGUGAGUCAAUACUCCAGCCAGAGAUACUGAAACUCAACAGAGGAUUGAGCAUCA
B8: chr1:168165803:168165804:+_ENSG00000143155_ENST00000367833|hu_hu|FALSE|FALSE (ssRNA)
RNA: GGGAGUUCUACAGUCCGACGAUCAUUCAUUCUGAUAAGCACCCCAUCAAUUCUCAAGAAAAACCGCAACAGCAGGAAAAAGCUAGAAGGCAUUACUCUAAUCUUCACACUCAGGCUUGAAACUCCAUGAUCAUGAAGUUCAUCCAACAGAGGAUUGAGCAUCA
B9: 122550611_122550731_2855_CDS_ENSMUSG00000020124_ENSMUST00000020334|mouse|control|control (ssRNA)
RNA: GGGAGUUCUACAGUCCGACGAUCGCUGUCUUCGUCACUUUCCAGGGGGAUACCUGUGGCAGCUGAAGCACCUUUAGUUUCUCGGUCAAGAGGGAAGAAGCCAGUCCCACUGAAAGUGUCCUGUCUCUGGUAGAAGAGCACGUACAACAGAGGAUUGAGCAUCA
B10: chr9:21333030:21333031:-_ENSG00000198642_ENST00000537938|hu_mus|motif|central (ssRNA)
RNA: GGGAGUUCUACAGUCCGACGAUCAAGGGGAUGAACAAGACCACCCAUGAUACACUGAAAAGGUAUUACACCUUGGAUCGGAGAAUGAUCUGAAGGUGCUGAAAGAGGUGAUUCUCUAGAAGGUGACCCAGGGUUUUCUUCAGGCAACAGAGGAUUGAGCAUCA
B11: 24495524_24502816_505_CDS_ENSG00000112294_ENST00000357578|human|control|control (ssRNA)
RNA: GGGAGUUCUACAGUCCGACGAUCUCUGGCAAGGUCAUCCUUAUUUUGUAUCAUUAAAUUGUACCACUUCCGAAGUAAUGAACUCCUCUCCUUGGCGGAGACCUCCCUCCAGCGGCAGAAAGCCUCGUAGGCAGCGCGCACGGCCAACAGAGGAUUGAGCAUCA
B12: chr1:235506153:235506154:+_ENSG00000152904_ENST00000391855|hu_hu|motif|central (ssRNA)
RNA: GGGAGUUCUACAGUCCGACGAUCCUACUCACCUAUUUACUGUUUCUGGAGAAUAACAAAUUUUUUAAAAGGUGGUAAGGCGGAAAGACAAAAAAAAGAUUAACUAAAAUAAGCUAUGAGGUCCAAUCAAGAAUGGCUUAACAUCAACAGAGGAUUGAGCAUCA
B13: 119723044_119728423_141_5pUTR_ENSMUSG00000033943_ENSMUST00000110774|mouse|control|control (ssRNA)
RNA: GGGAGUUCUACAGUCCGACGAUCCUGUUUCUCUUCCAUGAUUCCAGUGAGAAAUUCAGUAGUAAGAAAACUGUAGUCAAUUCAUAGUUACAAAUGCUUUUUCAUCCGUGCGGGGCGUGGCCGGCCUCACCCCGAGUCCUUCACCAACAGAGGAUUGAGCAUCA
B14: chr14:76904430:76904431:+_ENSMUSG00000022010_ENSMUST00000022587|mus_mus|mus_mus_mus_hu_True|18_28 (ssRNA)
RNA: GGGAGUUCUACAGUCCGACGAUCUGCAGCCAAAAACACCCUCGUGGAAAAAAAGAGGGAACACCAGCAGCCUUGUAUAAGCUAGAUAAAAUCUUCUGGCUUUCCGCAGCUCAGGGCGUGAGAACGGACGGCAGCCCUAAUUUACAACAGAGGAUUGAGCAUCA
B15: 53442044_53449486_251_CDS_ENSG00000072501_ENST00000322213|human|control|control (ssRNA)
RNA: GGGAGUUCUACAGUCCGACGAUCCAGGGUCUUUACCCGCAGGUUGCUGGUUUUUUCACCUAGCACAAAGCUGAUGGCAUCCAUGAGAUUUGACUUACCAGAGCCAUUGGGUCCAAUGAUGGCGGUGAACCUCUGAAAUGGUCCCAACAGAGGAUUGAGCAUCA
B16: chr1:65217810:65217811:-_ENSMUSG00000025950_ENSMUST00000097709|mus_mus|FALSE|FALSE (ssRNA)
RNA: GGGAGUUCUACAGUCCGACGAUCAGCCUCUGCAGCAUCUUUGGUGACCUGGUCAUUGGUGGCAUCACGAUUCUCUAUGCCUAAAUCAUAGCUAUGCAGAUCCAGUUCCACAUAGGGAAGAAUAAGUUUUUCCUUAAUCAAUUCCAACAGAGGAUUGAGCAUCA
B17: chr8:95500983:95500984:-_ENSG00000164944_ENST00000437199|hu_hu|hu_hu_hu_mus_True|38_68 (ssRNA)
RNA: GGGAGUUCUACAGUCCGACGAUCAGAACACAUCUAUCGAGUAAAGGACCGUACAUGACGGCCUCUAACCACUGCCUCACUAACAAACUUUCCUCUCUGAGCCUCCAUGCCGCUAUUUGUACUAGCCCAGGACGGUCCCAGGCCCAACAGAGGAUUGAGCAUCA
B18: chr1:66829163:66829164:+_ENSG00000184588_ENST00000423207|hu_mus|FALSE|FALSE (ssRNA)
RNA: GGGAGUUCUACAGUCCGACGAUCCACGUCAGCAGCAUGCAGGCUGUUGUGAUAUGCCACAUCAGAAUGGUAAUGGUCUUCUAAAGUCAUCAUGUAGGUUACAAAGGUGUCAGAUGAGAUUUUAAACGUCUUCAGAAGGUCUCUCAACAGAGGAUUGAGCAUCA
B19: chr6:41757443:41757444:+_ENSG00000214736_ENST00000398881|hu_mus|hu_hu_hu_mus_False|38_88 (ssRNA)
RNA: GGGAGUUCUACAGUCCGACGAUCGAACCGUGCAGAGGCAACAUCUCGGAAUUCUGCGGGGGAUGGGGGGGCAGUGGGGGGGGGUUCAGGCAAGGAGAAGAAAAGUGCUUCAGCUGCCACUCAGGUAGGAUCUUGUGGUCACAGCAACAGAGGAUUGAGCAUCA
B20: chr15:77794528:77794529:-_ENSMUSG00000016554_ENSMUST00000100484|mus_mus|FALSE|FALSE (ssRNA)
RNA: GGGAGUUCUACAGUCCGACGAUCGGUGGUGACGGUGUGAAAGAUGCGCUUGAUGCUCCGCAGGGGCUUCUCACUCCUUGUGGUGAUGCGGUCAAAGGCUUUGUCGUAGUACUCCAGGGCUCCGCAGCACUCGAUGUCUUGAGGCAACAGAGGAUUGAGCAUCA
B21: 38547764_38547884_4359_CDS_ENSG00000131747_ENST00000423485|human|control|control (ssRNA)
RNA: GGGAGUUCUACAGUCCGACGAUCUGCUGUCUUCUUCACUGUCACAUUCUUUUUAGGAACUGGGUUUGUAAUUUCAGUUUCAUCUGGGAAAUGUGUAGCAGGAGGGCUUGAAGACAGUGGUACACUGCCCUUAACAUCAUCAGCCAACAGAGGAUUGAGCAUCA
B22: chr12:35831226:35831227:+_ENSMUSG00000020590_ENSMUST00000048519|mus_hu|FALSE|FALSE (ssRNA)
RNA: GGGAGUUCUACAGUCCGACGAUCAUACCAGAAGACAUAAAGCCUCUUCAUGUAUAUAUUCAUAUAUGCAAUAAAUGCAUUAAAUGUAACUUUAUUAAACAUAGUACACUGUACUUGACUUAUGGUUAAAUAUUUUACACACAGCAACAGAGGAUUGAGCAUCA

Biological target: T1, UNK ZnF1-3
Test: nsRBNS (natural sequence RNA bind-n-seq); RBNS binding buffer (assumed for nsRBNS): 25 mM Tris pH 7.5, 150 mM KCl, 3 mM MgCl2, 0.01% Triton X-100, 500 ug/ml BSA, 20 U/ml SUPERase-In, 4 C; UNK is unkempt and MSI1 is Musashi-1; names of the RNAs are library labels; protein concentration not given here; high values mean tight binding

Binder	binding signal
B1	0.367 enrichment R
B2	1.7 enrichment R
B3	1.66 enrichment R
B4	0.846 enrichment R
B5	2.3 enrichment R
B6	2.04 enrichment R
B7	0.849 enrichment R
B8	1.8 enrichment R
B9	1.01 enrichment R
B10	1.02 enrichment R
B11	1.12 enrichment R
B12	3.18 enrichment R
B13	0.904 enrichment R
B14	1.64 enrichment R
B15	0.701 enrichment R
B16	1.12 enrichment R
B17	1.1 enrichment R
B18	0.752 enrichment R
B19	2.58 enrichment R
B20	0.906 enrichment R
B21	0.596 enrichment R
B22	1.05 enrichment R
